Out of some 310,000 compounds screened, about 14,000 (4.5%) showed an effect of 50% or more. Effects have a minus sign here. The list shows a part of the results.
These compounds were tested against human ether-à-go-go-related gene (hERG) potassium channel (human, UniProt Q12809) (assay: primary screen, population patch clamp on CHO cells stably expressing hERG).
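Further: peak tail current of the secondary pulse compared with the same well before compound.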

Sequence of human ether-à-go-go-related gene (hERG) potassium channel (Q12809 whole entry, looked up): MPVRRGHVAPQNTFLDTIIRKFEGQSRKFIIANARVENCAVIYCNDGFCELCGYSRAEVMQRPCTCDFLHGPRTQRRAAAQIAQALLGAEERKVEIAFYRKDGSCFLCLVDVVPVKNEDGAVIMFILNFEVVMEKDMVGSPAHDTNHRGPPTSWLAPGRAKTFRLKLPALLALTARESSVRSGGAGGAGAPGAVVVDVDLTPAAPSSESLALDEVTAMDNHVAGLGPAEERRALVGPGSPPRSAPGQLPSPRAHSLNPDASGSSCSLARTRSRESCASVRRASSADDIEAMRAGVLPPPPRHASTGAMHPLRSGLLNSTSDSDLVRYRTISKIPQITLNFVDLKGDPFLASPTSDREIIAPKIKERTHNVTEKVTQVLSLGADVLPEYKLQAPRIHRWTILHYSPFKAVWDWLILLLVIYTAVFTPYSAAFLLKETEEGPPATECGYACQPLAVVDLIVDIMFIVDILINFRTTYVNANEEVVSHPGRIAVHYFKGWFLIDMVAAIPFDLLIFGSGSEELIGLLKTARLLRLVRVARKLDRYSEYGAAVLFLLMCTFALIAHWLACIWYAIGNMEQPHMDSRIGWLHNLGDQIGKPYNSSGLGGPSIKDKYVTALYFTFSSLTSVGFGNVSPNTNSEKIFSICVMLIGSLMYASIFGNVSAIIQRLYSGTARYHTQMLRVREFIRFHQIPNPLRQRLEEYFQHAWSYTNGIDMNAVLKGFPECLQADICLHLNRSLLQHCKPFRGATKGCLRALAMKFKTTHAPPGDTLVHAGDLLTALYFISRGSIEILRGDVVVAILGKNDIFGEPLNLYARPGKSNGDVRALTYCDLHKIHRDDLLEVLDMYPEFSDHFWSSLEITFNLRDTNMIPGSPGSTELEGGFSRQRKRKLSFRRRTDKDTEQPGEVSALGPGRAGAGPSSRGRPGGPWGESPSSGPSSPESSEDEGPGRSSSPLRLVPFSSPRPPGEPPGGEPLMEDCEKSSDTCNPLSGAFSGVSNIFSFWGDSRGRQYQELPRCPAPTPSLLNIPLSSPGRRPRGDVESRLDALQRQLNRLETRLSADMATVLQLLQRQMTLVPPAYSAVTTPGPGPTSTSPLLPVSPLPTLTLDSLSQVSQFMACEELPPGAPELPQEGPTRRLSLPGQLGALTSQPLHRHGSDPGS

| SMILES | hERG current change (%, negative = inhibition) at 10uM [%] |
| --- | --- |
| CCCN(CC(=O)Nc1ccccc1C)C(=O)CC(NC(=O)c1ccccc1)c1ccccc1 (stereo not drawn) | -52.7 |
| Cn1nc([N+](=O)[O-])nc1Sc1ccc(Cl)cc1 | -8.08 |
| CCOc1ccc(S(=O)(=O)NCC(c2ccc3c(c2)OCO3)N2CCN(C)CC2)cc1 (stereo not drawn) | -59.2 |
| N#Cc1ccc(S(=O)(=O)N2CCN(CC(=O)Nc3ccccc3C(=O)NC3CC3)CC2)cc1 | -73.9 |
| NC(=O)C1CCN(C(=O)C(=O)c2cn(CC(=O)N3CCCC3)c3ccccc23)CC1 | 6.67 |
| O=C(CSc1ccncc1)Nc1ccc2ccccc2c1 | 12.4 |
| CC#CCN(Cc1ccco1)C(=O)C1CCC(=O)N(Cc2ccccc2F)C1 (stereo not drawn) | -7.03 |
| O=C(Nc1ccccn1)C1CCN(S(=O)(=O)c2ccc3c(c2)OCCO3)CC1 | -11.5 |
| COc1ccc(CNC(=O)Nc2cccc(C)c2)cc1 | 4.23 |
| CCOc1cc(CNCc2ccccc2)ccc1OCc1ccc(Cl)cc1.Cl | -33.1 |
| O=C(NCC1CCCO1)c1cc([N+](=O)[O-])ccc1Cl (stereo not drawn) | 8.54 |
| CCC(=O)Nc1ccc(NC(=O)CSc2nnc(-c3ccco3)n2CC)cc1 | 8.22 |
| CC(=C/c1ccco1)/C=N/N1CCN(c2ccccc2)CC1 | -8.66 |
| COc1ccc(Cl)cc1NC(=O)CN(C)C(=O)c1cn(-c2ccccc2)nc1-c1cccnc1 | -59.9 |
| COc1ccc(S(=O)(=O)Nc2ccccn2)cc1C | 20.1 |
| CCc1ccccc1NC(=O)NC(C)c1ccc2c(c1)OCO2 (stereo not drawn) | 14 |
| CC(C)(C)C(=O)Nc1nnc(SCC(=O)NCc2ccco2)s1 | -12 |
| Cc1ccc(C(=O)Nc2ccc3c(c2)C(=O)N(CC2CCCO2)C3=O)cc1 (stereo not drawn) | 12.4 |
| COc1ccc(N2CCN(CC(=O)NCc3ccc(Cl)cc3)CC2)cc1 | -55.7 |
| CCN(CC(=O)Nc1c(F)cccc1F)C(=O)CCSc1ccc(C)cc1 | -19 |
| O=C(O)[C@]1(S(=O)(=O)c2ccccc2)C[C@@H]2ON=C(c3cccc(Br)c3)[C@@H]2C1 | -2.55 |
| CCOc1ccccc1NC(=O)C(C)CC (stereo not drawn) | -6.76 |
| COc1ccc(NC(=O)C2C3C=CC4(O3)C2C(=O)N(CCN2CCCCC2)C4C(=O)NC2CCCCC2)cc1 (stereo not drawn) | 9.9 |
| CC12CN(C(=O)c3ccco3)CC(c3ccccc3)(CN(C(=O)c3ccco3)C1)C2=O | -9.76 |
| CCOC(CCNC(=O)c1cc2c(=O)[nH]c3ccccc3c2s1)OCC | 5.3 |
| CCCCn1c(SCC(=O)N2CCC(C)CC2)nc2cc(S(N)(=O)=O)ccc21 | -30.2 |
| CC(CN1CCC(n2nccc2NC(=O)C2CCCC2)CC1)c1ccccc1 (stereo not drawn) | -24 |

| SMILES | hERG current change (%, negative = inhibition) at 10uM [%] |
| --- | --- |
| CCC(C(=O)OCC(=O)c1c(N)n(CC(C)C)c(=O)n(C)c1=O)c1ccccc1 (stereo not drawn) | -2.13 |
| O=C(O)CCC(CNS(=O)(=O)c1ccccc1)C(F)(F)F (stereo not drawn) | 21.7 |
| CCN(C(=O)COC(=O)C1CCN(S(=O)(=O)c2ccc(C)c(C)c2)CC1)C1CCCCC1 | -10.4 |
| CCC1CN(C(=O)NCc2cccc(OC)c2)c2cc(Cl)ccc2O1 (stereo not drawn) | 10.4 |
| Cc1ccc(S(=O)(=O)N2CCN(c3cnn(C)c(=O)c3Cl)CC2)cc1 | -6.23 |
| CCOC(=O)c1c(NS(=O)(=O)c2ccccc2)n(CCCOC)c2nc3ccccc3nc12 | 1.43 |
| CC(C)CNC(=O)CSc1ccc(Cl)cc1 | -3.84 |
| CCC(C(=O)NC1CCCC1)N(C(=O)Cn1nnc(-c2ccc(C)o2)n1)c1cnc2ccccc2c1 (stereo not drawn) | 5.57 |
| Cc1cccc(OCC(=O)N2CCN(c3nnc(-c4ccccc4)c4ccccc34)CC2)c1 | -69.7 |
| COc1ccc(-n2c(=O)n(Cc3ccccc3)c(=O)c3[nH]cnc32)cc1 | -17.1 |
| O=C(NCc1ccco1)c1cnc2ccccn2c1=O | -3.03 |
| COc1cccc(/C=C2\SC(N3CCCC(C)C3)=NC2=O)c1OC (stereo not drawn) | 5.94 |
| CC(=O)Nc1cccc(OCC(O)Cn2cnc3ccccc32)c1 (stereo not drawn) | 25.3 |
| CCOC(=O)N1CCN(C(=O)CCn2nc(-c3ccccc3)ccc2=O)CC1 | -42.8 |
| CCOC(=O)CN1C(=O)C(O)(c2c(C)[nH]c3ccccc23)c2ccccc21 (stereo not drawn) | -1.32 |
| CCOc1ccc(C(F)(F)F)cc1NC(C)=O | 3.6 |
| CC(C)Cc1oc(C(=O)O)cc1CN1CCOCC1.Cl | 12.3 |
| CCSc1cc(C2C(C#N)=C(N)OC(C)=C2C(=O)OC)c(C)o1 (stereo not drawn) | 4.3 |
| Cc1ccc(C(=O)OCC(=O)N2CCCC2)cc1 | -2.99 |
| NC(=O)c1nsc(C(=O)N(c2ccc3c(c2)OCO3)C(C(=O)NCC2CCCO2)c2ccc(F)cc2)c1N (stereo not drawn) | -8.25 |
| CN([C@@H](Cc1ccc(OS(=O)(=O)c2cccc3cnccc23)cc1)C(=O)N1CCN(c2ccccc2)CC1)S(=O)(=O)c1cccc2cnccc12 | -2.74 |
| O=C(NC1CC1)c1ccc(CS(=O)c2ccccc2)o1 (stereo not drawn) | -2.49 |
| Cn1nnnc1SCC(=O)NCc1cc([N+](=O)[O-])ccc1O | 31.9 |
| COc1cccc(CC(=O)N2CCC(n3nccc3NC(=O)C3CCOC3)CC2)c1 (stereo not drawn) | 21.7 |
| CCOC(=O)C1(CC2CC2)CCN(Cc2ccc(C(=O)OC)cc2)CC1 | -57 |
| CCOc1ccc(S(=O)(=O)N2Cc3ccccc3CC2C(=O)NCCCn2ccnc2)cc1 (stereo not drawn) | -38.2 |
| COc1ccc(/C=C2\CCCC3C2=NN(C(=O)c2scnc2C)C3c2ccc(OC)cc2)cc1 (stereo not drawn) | 4.4 |
